Laboratory results published in PMC4336329 (PLoS ONE, 2015).
Out of some 310,000 compounds screened, about 14,000 (4.5%) showed an effect of 50% or more. Effects have a minus sign here. Some of the results follow.

target: human ether-à-go-go-related gene (hERG) potassium channel (human, UniProt Q12809); assay: primary screen, population patch clamp on CHO cells stably expressing hERG
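Further: peak tail current of the secondary pulse compared with the same well before compound.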

human ether-à-go-go-related gene (hERG) potassium channel, sequence (Q12809 whole entry, looked up): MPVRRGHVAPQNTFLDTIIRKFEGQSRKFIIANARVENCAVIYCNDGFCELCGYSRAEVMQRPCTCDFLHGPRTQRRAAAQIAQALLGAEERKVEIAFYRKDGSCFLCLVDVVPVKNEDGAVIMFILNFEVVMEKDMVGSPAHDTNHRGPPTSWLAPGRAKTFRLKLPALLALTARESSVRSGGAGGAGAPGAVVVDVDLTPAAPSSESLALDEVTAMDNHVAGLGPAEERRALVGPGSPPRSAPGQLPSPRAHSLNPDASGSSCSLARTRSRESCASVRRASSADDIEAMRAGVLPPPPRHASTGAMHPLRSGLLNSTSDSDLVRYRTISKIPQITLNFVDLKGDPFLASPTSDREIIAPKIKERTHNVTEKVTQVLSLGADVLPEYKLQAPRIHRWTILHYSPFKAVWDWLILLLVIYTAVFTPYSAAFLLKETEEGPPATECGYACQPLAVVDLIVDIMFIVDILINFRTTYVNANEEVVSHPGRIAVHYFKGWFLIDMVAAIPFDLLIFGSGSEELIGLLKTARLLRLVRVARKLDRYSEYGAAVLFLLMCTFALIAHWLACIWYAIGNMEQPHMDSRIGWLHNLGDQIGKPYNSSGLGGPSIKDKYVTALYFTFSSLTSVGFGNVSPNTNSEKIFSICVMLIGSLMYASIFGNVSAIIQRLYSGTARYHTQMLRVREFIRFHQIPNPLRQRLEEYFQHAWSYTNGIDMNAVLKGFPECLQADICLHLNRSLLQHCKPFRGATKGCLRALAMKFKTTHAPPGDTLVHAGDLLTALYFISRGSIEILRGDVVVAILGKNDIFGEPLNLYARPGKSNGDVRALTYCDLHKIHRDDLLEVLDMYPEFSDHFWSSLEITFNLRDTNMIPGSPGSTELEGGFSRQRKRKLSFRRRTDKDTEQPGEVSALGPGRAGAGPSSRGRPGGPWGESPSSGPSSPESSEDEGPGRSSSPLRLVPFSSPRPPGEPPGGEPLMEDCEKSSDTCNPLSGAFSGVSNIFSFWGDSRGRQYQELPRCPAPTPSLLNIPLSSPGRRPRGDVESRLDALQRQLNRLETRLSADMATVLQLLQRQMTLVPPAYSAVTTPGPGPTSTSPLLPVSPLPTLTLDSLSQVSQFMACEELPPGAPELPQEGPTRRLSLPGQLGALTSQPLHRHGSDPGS

| Compound | hERG current change (%, negative = inhibition) at 10uM |
| --- | --- |
| CCOC(=O)N1CCN(C(=O)CCc2ccccc2)CC1 | 5.12% |
| Cc1cnn(-c2cc(N/N=C/c3ccc(F)cc3)ncn2)c1 | 5.69% |
| COc1ccc(C)cc1COC(=O)c1[nH]c(C)c(C(C)=O)c1C | -1.51% |
| CC(C)c1ccc(NC(=O)CSc2n[nH]c(=O)n2-c2cccnc2)cc1 | 5.5% |
| Nc1nc(Nc2ccccc2)nc(NCc2ccccc2)c1[N+](=O)[O-] | 9.27% |
| CN(Cc1ccccc1)C(=O)CSc1n[nH]c(N)n1 | 4.21% |
| CCOc1ccc2[nH]c3c(NCCC(C)C)ncnc3c2c1 | 7.2% |
| Cc1csc(NC(=O)CSc2nnc(NC(=O)COc3ccccc3)s2)n1 | 12.3% |
| CCN(C(=O)Cc1c(C(=O)O)n(CC)c2ccccc12)c1cccc(C(F)(F)F)c1 | 13.1% |
| COc1ccc(/C=C2\SC(=S)N(CCC(=O)Nc3cccc(O)c3)C2=O)cc1OC | 14.5% |
| COc1ccc(C(=O)N/C(=C/c2ccc(Cl)cc2)C(=O)Nc2ccc(C(=O)O)cc2)cc1 | 11.4% |
| Cc1coc2c1c(C)cc1oc(=O)c(CC(=O)N[C@H](C(=O)O)C(C)C)c(C)c12 | 12.4% |
| CC(=O)Nc1ccccc1NC(=O)c1ccccc1 | 14.5% |
| Cc1cc(C)c2nc(N(CCCN(C)C)C(=O)c3ccc4c(c3)CCCC4)sc2c1.Cl | -3.72% |
| CCNC(=O)c1cccc(NC(=O)CC2SC(N3CCCCC3)=NC2=O)c1 (stereo not drawn) | 15.3% |
| COc1cc(OC)cc(C(=O)NCC(=O)NCC(c2ccco2)N2CCCCC2)c1 (stereo not drawn) | 11.5% |
| CCS(=O)(=O)Nc1ccc(C(=O)CC2(O)C(=O)Nc3ccc(Br)cc32)cc1 (stereo not drawn) | 19.5% |
| CCOC(=O)c1cc2c(nc1N)CCCC2 | 3.35% |
| O=C(NCCN1CCN(Cc2ccccc2)CC1)c1cc2c(=O)[nH]c3ccccc3c2s1 | -4.5% |
| O=C(NC1CCCCCC1)C1CCCN1S(=O)(=O)c1cccc2cccnc12 (stereo not drawn) | 4.56% |
| Cc1cc(NC(=O)CSC2=NCCS2)no1 | 5.17% |
| CN(C(=O)CSc1nc2cc(C(=O)O)ccc2c(=O)n1Cc1ccccc1)C1CCS(=O)(=O)C1 (stereo not drawn) | 37.8% |
| O=C(c1ccc(Br)o1)N(c1ccccn1)C1CCCCC1 | -10.9% |

| Compound | hERG current change (%, negative = inhibition) at 10uM |
| --- | --- |
| Cc1ccc(F)cc1NC(=O)CSc1nnc(CNC(=O)c2ccco2)n1C | -9.47% |
| O=C(NC(=S)NCCc1ccccn1)c1ccco1 | 17.4% |
| CCOc1ccc(N(CC(=O)N2CCCCCC2)S(C)(=O)=O)cc1 | 14.7% |
| CCn1cc(CNC(=O)C2CCC(=O)N(C3CCCCCC3)C2)cn1 (stereo not drawn) | 15.1% |
| O=C(Nc1ccc(F)c([N+](=O)[O-])c1)C1CC(=O)N(Cc2ccccc2)C1 (stereo not drawn) | -34.4% |
| Cl.NC(=O)c1c(NC(=O)Cc2ccccc2)sc2c1CCN(Cc1ccccc1)C2 | 7.96% |
| COc1ccc(-c2ccc(C)cc2)cc1[C@H]1[C@H]2C=CC[C@@H](C)[C@@H]2C(=O)N1Cc1ccccc1 | 5.42% |
| CN(C)c1ccnc(Nc2ccccc2)c1C#N | 5.53% |
| Cc1ccc(S(=O)(=O)Oc2cc(N)c3c(n2)CCC3)cc1 | 18.8% |
| CS(=O)(=O)c1ccc(C2=C(c3ccccc3)C(=O)OC2)cc1 | -13.3% |
| CC1(C)CC(=O)C(C=NCCN2CCN(C(=S)Nc3ccc(F)cc3)CC2)=C(O)C1 | -27.8% |
| COc1ccccc1C/C(N)=N/O | 3.69% |
| CCCC1=Nc2cc(C(=O)NCCCOCC)ccc2Sc2ccccc21 | -0.882% |
| O=C(Oc1c(-c2ccccc2)c(=O)n2c3c(cccc13)CC2)c1ccc(Cl)cc1 | 4.16% |
| Cc1c(C(=O)OC(C)C(C)C[N+](C)(C)C)oc2ccccc12.[I-] (stereo not drawn) | 10.2% |
| Cn1nc(Oc2nc(N3CCOCC3)nc(N3CCOCC3)n2)ccc1=O | -8.79% |
| CCOc1ccc(N(CC(=O)N/N=C/c2ccccn2)S(=O)(=O)c2ccc(Cl)cc2)cc1 | -10.4% |
| COc1cc(C(=O)Oc2c(CN3CCOCC3)cc(Cl)c3cccnc23)cc(OC)c1OC | -33.6% |
| C/C=N\NC(=O)CNC(=O)CNC(=O)c1ccccc1 | 14.4% |
| CC(/C=N/NC(=O)CN1CCN(Cc2ccc(Cl)cc2)CC1)=C\c1ccco1 | -69.2% |
| CCCSc1oc(-c2ccco2)nc1S(=O)(=O)c1ccccc1 | -29.1% |
| Cn1c(=O)c2[nH]c(-c3ccccc3Cl)c(O)c2n(C)c1=O | -1.88% |
| CCOC(=O)C1C(=O)N(C(=O)c2ccc(OC)cc2)CC1c1ccccc1 (stereo not drawn) | 14.9% |

| Compound | hERG current change (%, negative = inhibition) at 10uM |
| --- | --- |
| COc1ccccc1N1CCN(/N=C/c2ccc(O)c(O)c2)CC1 | 2.89% |
| Cc1nn(CCC(N)=O)c2nc(-c3cccs3)cc(C(F)(F)F)c12 | -6.5% |
| CCOC(=O)c1ccc(CSc2nnc(C)n2N)o1 | 12.6% |
| CC1(C(=O)NC2CCCCCCC2)CCC(=O)N1Cc1ccco1 (stereo not drawn) | 5.05% |
| COc1ccccc1N1CCN(C(=O)Nc2cccc(Cl)c2)CC1 | -28.2% |
| CCn1c(C)nnc1SCC(=O)Nc1cccc(C(F)(F)F)c1 | 12.4% |
| Cc1cc(C)c(S(=O)(=O)NC(CC(=O)O)c2cccc([N+](=O)[O-])c2)c(C)c1 (stereo not drawn) | 18.6% |
| CC(=O)Nc1ccc(Nc2ccc(S(=O)(=O)C(F)(F)F)cc2[N+](=O)[O-])cc1 | -9.38% |
| CN(C)c1ccc(NS(=O)(=O)c2cccc(Cl)c2)cc1 | 11.6% |
| O=c1c(-c2ccccc2)c[nH]n1-c1cccc([N+](=O)[O-])c1 | 22.6% |
| O=C(/C=N/O)Nc1ccc(F)cc1 | -0.933% |
| Fc1ccccc1CNC(=S)Nc1cccc(C(F)(F)F)c1 | -4.64% |
| CCNC(=O)c1sccc1-n1cccc1 | 15.6% |
| CCN(CC)c1ccc(NC(=O)c2[nH]c(C)c(C(C)=O)c2C)c(C)c1 | 12.3% |
| COc1cccc(NC(=O)c2ccncc2)c1 | 14.3% |
| Cc1ccccc1-n1nc2c(c1NC(=O)c1cc3ccccc3oc1=O)CS(=O)C2 (stereo not drawn) | -0.677% |
| COc1ccccc1C1C([N+](=O)[O-])=CC([N+](=O)[O-])=CN1C (stereo not drawn) | -6.69% |
| COc1cc(CNC(=O)c2cnc(C)cn2)cc(OC)c1 | 19.6% |
| O=C(OCCN=C1NS(=O)(=O)c2ccccc21)c1ccccc1F | -5.43% |
| Cc1noc(COc2ccc(OCc3nc(C)no3)cc2)n1 | 6.69% |
| CC(NS(=O)(=O)c1ccc(CCC(=O)NCc2ccco2)cc1)c1ccccc1 (stereo not drawn) | -9.5% |
| CC1CCN(C(=S)c2cccc([N+](=O)[O-])c2)CC1 | 2.16% |
| CCn1c(SCC(=O)N2CCCC2)nc2c(c1=O)SCC2 | 8.67% |

| Compound | hERG current change (%, negative = inhibition) at 10uM |
| --- | --- |
| Cc1nc(C)c(CCNC(=O)c2cccc(Cl)c2)s1 | -4.98% |
| Cl.Oc1ccccc1/C=N/NC1=NCCCCC1 | -15.9% |
| CC1CCCN(CCCCOc2cccc(Br)c2)C1.O=C(O)C(=O)O (stereo not drawn) | -69% |
| CS(=O)(=O)c1ccccc1C(=O)N1CCN(Cc2ccccc2)CC1 | 23.7% |
| COc1ccccc1N=C1SCCCN1C.I | -9.75% |
| CC(=O)c1cccc(NC(=O)N2CCC(NC(=O)C34CC5CC(CC(C5)C3)C4)CC2)c1 | -1.89% |
| O=C(CCCn1c(=O)c2cccn2c2cccnc21)N1CCN(c2ccccc2F)CC1 | -10.7% |
| CC(=O)Nc1ccc(S(=O)(=O)NC(CC(=O)NC2CCCCC2C)C(C)C)cc1 (stereo not drawn) | 14.6% |
| CCOC(=O)CNC(=O)CNC(=O)c1ccc(OCC(C)C)cc1 | 4.44% |
| CCc1ccc(C=NC23CN4CN(CN(C4)C2)C3)s1 | 6.67% |
| CCOc1ccc(-n2c(N)c(C(=O)NCc3ccco3)sc2=S)cc1 | -9.96% |
| CCOC(=O)C1(Cc2cccc(F)c2)CCN(C(=O)C2CCCO2)CC1 (stereo not drawn) | 10.2% |
| CSc1nsc(SC)c1NC(=O)OC1CCCCC1 | -15.1% |
| CCOC(=O)c1ccc(C(=O)OCC)c(NC(=S)Nc2ccc([N+](=O)[O-])cc2OC)c1 | -3.54% |
| Cc1cccc(C)c1NC(=S)N(c1ccccc1)C(C)C | 4.92% |
| COC(=O)[C@@]12CCCN1[C@H](c1ccc(SC3CCCCC3)cc1)[C@H]1C(=O)N(C)C(=O)[C@H]12.O=C(O)C(F)(F)F | -28.7% |
| CC(=O)c1cnc2cc(C)nn2c1C | 1.66% |
| CCN(C(=O)CN1CCN(Cc2ccccc2)CC1)c1c(N)n(Cc2ccccc2)c(=O)[nH]c1=O | 37.6% |
| CC(=O)Nc1ccc(NC(=O)Nc2ccc(C)cc2C)cc1 | 18.9% |
| Cc1cccc(N2C(=O)CN(Cc3sccc3C)C2=S)c1 | -7.83% |
| O=C(CCCC(=O)OCC(Cl)=C(Cl)Cl)Nc1ccc(F)cc1 | 7.87% |
